# Assay results taken from the supplement of paper PMC8728848.
# The other results are listed elsewhere or left out.
# B1: ASAL (Allium sativum), P83886 (protein)
# chain: MGRTTSSPKAMMRIATVAAILTILASTCMARNVLTNGEGLYAGQSLDVEQYKFIMQDDCNLVLYEYSTPIWASNTGVTGKNGCRAVMQRDGNFVVYDVNGRPVWASNSVRGNGNYILVLQKDRNVVIYGSDIWSTGTYRRSVGGAVVMAMNGTVDGGSVIGPVVVNQNVTAAIRKVGTGAA
# Experiments:
# Assay in all cases: glycan array binding signal (z-score within array); higher = stronger binding
# Settings in all cases: glycan notation: IUPAC condensed, linker removed
# [1] = biological target: Gal(b1-4)GalNAc(b1-3)[Fuc(a1-2)]Gal(b1-4)GlcNAc
# Procedure, shortened: (§1)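 Glycan array binding is given as a within-array Z-score, which can be read as non-binding when negative. The arrays, 3228 of them, came from the Consortium for Functional Glycomics database and were retained only where the protein sequence was available. Z-scores were averaged across arrays of the same protein sequence at different concentrations or buffers and across linkers.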
# Gal(b1-4)Glc = biological target: Gal(b1-4)Glc
# Procedure, shortened: as §1
# Gal(b1-4)Glc6S = biological target: Gal(b1-4)Glc6S
# Procedure, shortened: as §1
# Gal(b1-4)GlcNAc = biological target: Gal(b1-4)GlcNAc
# Procedure, shortened: as §1
# [2] = biological target: Gal(b1-4)GlcNAc(a1-6)Gal(b1-4)GlcNAc
# Procedure, shortened: as §1
# [3] = biological target: Gal(b1-4)GlcNAc(b1-2)Man(a1-3)Man(b1-4)GlcNAc(b1-4)GlcNAc
# Procedure, shortened: as §1
# [4] = biological target: Gal(b1-4)GlcNAc(b1-2)Man(a1-3)[Gal(b1-4)GlcNAc(b1-2)Man(a1-6)]Man(b1-4)GlcNAc(b1-4)GlcNAc
# Procedure, shortened: as §1
# [5] = biological target: Gal(b1-4)GlcNAc(b1-2)Man(a1-3)[Gal(b1-4)GlcNAc(b1-2)Man(a1-6)]Man(b1-4)GlcNAc(b1-4)[Fuc(a1-6)]GlcNAc
# Procedure, shortened: as §1
# [6] = biological target: Gal(b1-4)GlcNAc(b1-2)Man(a1-3)[Gal(b1-4)GlcNAc(b1-2)][GlcNAc(b1-4)]Man(b1-4)GlcNAc(b1-4)GlcNAc
# Procedure, shortened: as §1
# [7] = biological target: Gal(b1-4)GlcNAc(b1-2)Man(a1-3)[GlcNAc(b1-2)Man(a1-6)]Man(b1-4)GlcNAc(b1-4)GlcNAc
# Procedure, shortened: as §1
# [8] = biological target: Gal(b1-4)GlcNAc(b1-2)Man(a1-3)[Man(a1-6)]Man(b1-4)GlcNAc(b1-4)GlcNAc
# Procedure, shortened: as §1
# [9] = biological target: Gal(b1-4)GlcNAc(b1-2)Man(a1-6)Man(b1-4)GlcNAc(b1-4)GlcNAc
# Procedure, shortened: as §1
# [10] = biological target: Gal(b1-4)GlcNAc(b1-2)Man(a1-6)[GlcNAc(b1-2)Man(a1-3)]Man(b1-4)GlcNAc(b1-4)GlcNAc
# Procedure, shortened: as §1
# [11] = biological target: Gal(b1-4)GlcNAc(b1-2)Man(a1-6)[Man(a1-3)]Man(b1-4)GlcNAc(b1-4)GlcNAc
# Procedure, shortened: as §1
# [12] = biological target: Gal(b1-4)GlcNAc(b1-2)[Gal(b1-4)GlcNAc(b1-4)]Man(a1-3)[Gal(b1-4)GlcNAc(b1-2)Man(a1-6)]Man(b1-4)GlcNAc(b1-4)GlcNAc
# Procedure, shortened: as §1
# [13] = biological target: Gal(b1-4)GlcNAc(b1-2)[Gal(b1-4)GlcNAc(b1-4)]Man(a1-3)[Gal(b1-4)GlcNAc(b1-2)[Gal(b1-4)GlcNAc(b1-6)]Man(a1-6)]Man(b1-4)GlcNAc(b1-4)GlcNAc
# Procedure, shortened: as §1
# [14] = biological target: Gal(b1-4)GlcNAc(b1-2)[Gal(b1-4)GlcNAc(b1-4)]Man(a1-3)[GlcNAc(b1-4)][Gal(b1-4)GlcNAc(b1-2)Man(a1-6)]Man(b1-4)GlcNAc(b1-4)GlcNAc
# Procedure, shortened: as §1
# [15] = biological target: Gal(b1-4)GlcNAc(b1-2)[Gal(b1-4)GlcNAc(b1-6)]Man(a1-6)[GlcNAc(b1-4)][Gal(b1-4)GlcNAc(b1-2)Man(a1-3)]Man(b1-4)GlcNAc(b1-4)GlcNAc
# Procedure, shortened: as §1
# [16] = biological target: Gal(b1-4)GlcNAc(b1-3)Gal(b1-3)GlcNAc
# Procedure, shortened: as §1
# [17] = biological target: Gal(b1-4)GlcNAc(b1-3)Gal(b1-4)Glc
# Procedure, shortened: as §1
# [18] = biological target: Gal(b1-4)GlcNAc(b1-3)Gal(b1-4)GlcNAc
# Procedure, shortened: as §1
# [19] = biological target: Gal(b1-4)GlcNAc(b1-3)Gal(b1-4)GlcNAc(b1-3)Gal(b1-4)GlcNAc
# Procedure, shortened: as §1
# [20] = biological target: Gal(b1-4)GlcNAc(b1-3)Gal(b1-4)[Fuc(a1-3)GlcNAc(b1-6)]Gal(b1-4)Glc
# Procedure, shortened: as §1
# [21] = biological target: Gal(b1-4)GlcNAc(b1-3)Gal(b1-4)[Fuc(a1-3)]GlcNAc(b1-3)Gal(b1-4)[Fuc(a1-3)]GlcNAc
# Procedure, shortened: as §1
# [22] = biological target: Gal(b1-4)GlcNAc(b1-3)GalNAc
# Procedure, shortened: as §1
# [23] = biological target: Gal(b1-4)GlcNAc(b1-3)[Gal(b1-4)GlcNAc(b1-6)]Gal(b1-4)GlcNAc
# Procedure, shortened: as §1
# [24] = biological target: Gal(b1-4)GlcNAc(b1-3)[Gal(b1-4)GlcNAc(b1-6)]GalNAc
# Procedure, shortened: as §1
# [25] = biological target: Gal(b1-4)GlcNAc(b1-3)[GlcNAc(b1-6)]Gal(b1-4)GlcNAc
# Procedure, shortened: as §1
# [26] = biological target: Gal(b1-4)GlcNAc(b1-6)Gal(b1-4)GlcNAc
# Procedure, shortened: as §1
# [27] = biological target: Gal(b1-4)GlcNAc(b1-6)GalNAc
# Procedure, shortened: as §1
# [28] = biological target: Gal(b1-4)GlcNAc(b1-6)[Gal(b1-3)]GalNAc
# Procedure, shortened: as §1
# Gal(b1-6)Gal = biological target: Gal(b1-6)Gal
# Procedure, shortened: as §1
# Gal3S(b1-3)GalNAc = biological target: Gal3S(b1-3)GalNAc
# Procedure, shortened: as §1
# Gal3S(b1-3)GlcNAc = biological target: Gal3S(b1-3)GlcNAc
# Procedure, shortened: as §1
# [29] = biological target: Gal3S(b1-3)[Fuc(a1-4)]GlcNAc
# Procedure, shortened: as §1
# Gal3S(b1-4)Glc = biological target: Gal3S(b1-4)Glc
# Procedure, shortened: as §1
# Gal3S(b1-4)Glc6S = biological target: Gal3S(b1-4)Glc6S
# Procedure, shortened: as §1
# Gal3S(b1-4)GlcNAc = biological target: Gal3S(b1-4)GlcNAc
# Procedure, shortened: as §1
# Gal3S(b1-4)GlcNAc6S = biological target: Gal3S(b1-4)GlcNAc6S
# Procedure, shortened: as §1
# [30] = biological target: Gal3S(b1-4)[Fuc(a1-3)]Glc
# Procedure, shortened: as §1
# [31] = biological target: Gal3S(b1-4)[Fuc(a1-3)]Glc6S
# Procedure, shortened: as §1
# Gal3S4S(b1-4)GlcNAc = biological target: Gal3S4S(b1-4)GlcNAc
# Procedure, shortened: as §1
# Gal3S6S(b1-4)GlcNAc = biological target: Gal3S6S(b1-4)GlcNAc
# Procedure, shortened: as §1
# Gal3S6S(b1-4)GlcNAc6S = biological target: Gal3S6S(b1-4)GlcNAc6S
# Procedure, shortened: as §1
# Gal4S(b1-4)GlcNAc = biological target: Gal4S(b1-4)GlcNAc
# Procedure, shortened: as §1
binder,measurement,setting,value
B1,glycan array binding signal (z-score),[1],-0.247
same,glycan array binding signal (z-score),Gal(b1-4)Glc,-0.256
same,glycan array binding signal (z-score),Gal(b1-4)Glc6S,-0.263
same,glycan array binding signal (z-score),Gal(b1-4)GlcNAc,-0.227
same,glycan array binding signal (z-score),[2],-0.293
same,glycan array binding signal (z-score),[3],6.55
same,glycan array binding signal (z-score),[4],5.54
same,glycan array binding signal (z-score),[5],7.04
same,glycan array binding signal (z-score),[6],-0.228
same,glycan array binding signal (z-score),[7],5.91
same,glycan array binding signal (z-score),[8],7.21
same,glycan array binding signal (z-score),[9],-0.251
same,glycan array binding signal (z-score),[10],2.1
same,glycan array binding signal (z-score),[11],0.085
same,glycan array binding signal (z-score),[12],2.32
same,glycan array binding signal (z-score),[13],3.4
same,glycan array binding signal (z-score),[14],-0.138
same,glycan array binding signal (z-score),[15],-0.211
same,glycan array binding signal (z-score),[16],-0.285
same,glycan array binding signal (z-score),[17],-0.267
same,glycan array binding signal (z-score),[18],-0.23
same,glycan array binding signal (z-score),[19],-0.287
same,glycan array binding signal (z-score),[20],-0.262
same,glycan array binding signal (z-score),[21],-0.266
same,glycan array binding signal (z-score),[22],-0.23
same,glycan array binding signal (z-score),[23],-0.305
same,glycan array binding signal (z-score),[24],-0.255
same,glycan array binding signal (z-score),[25],-0.281
same,glycan array binding signal (z-score),[26],-0.283
same,glycan array binding signal (z-score),[27],-0.22
same,glycan array binding signal (z-score),[28],-0.256
same,glycan array binding signal (z-score),Gal(b1-6)Gal,-0.255
same,glycan array binding signal (z-score),Gal3S(b1-3)GalNAc,-0.259
same,glycan array binding signal (z-score),Gal3S(b1-3)GlcNAc,-0.313
same,glycan array binding signal (z-score),[29],-0.154
same,glycan array binding signal (z-score),Gal3S(b1-4)Glc,-0.237
same,glycan array binding signal (z-score),Gal3S(b1-4)Glc6S,-0.227
same,glycan array binding signal (z-score),Gal3S(b1-4)GlcNAc,-0.248
same,glycan array binding signal (z-score),Gal3S(b1-4)GlcNAc6S,-0.212
same,glycan array binding signal (z-score),[30],-0.271
same,glycan array binding signal (z-score),[31],-0.227
same,glycan array binding signal (z-score),Gal3S4S(b1-4)GlcNAc,-0.273
same,glycan array binding signal (z-score),Gal3S6S(b1-4)GlcNAc,-0.275
same,glycan array binding signal (z-score),Gal3S6S(b1-4)GlcNAc6S,-0.238
same,glycan array binding signal (z-score),Gal4S(b1-4)GlcNAc,-0.287
